Test results reported in patent US8586505B2 (SDS Biotech K. K., priority 2009, dated 2013).

The molecules below were run on Aphis gossypii (assay: whole plant or invertebrate). Settings: in Cucumis sativus, 48 h, read-out: Determination (mortality rate).
Protocol: (§1) A cucumber leaf section having a diameter of 3 cm was placed on a wet sponge in a plastic cup. Thereafter, five female adults of Aphis gossypii were released into the plastic cup, and they were then left at rest overnight. Thereafter, the number of new-born larvae was counted. 0.4 ml each of an agent solution prepared by diluting a 10% wettable powder of each compound shown in Table 1 to a concentration of 250 ppm was sprayed thereto. Two days later, the number of deaths was counted, and the mortality rate was then calculated.

SMILES | mortality at 250 ppm [%]
Fc1ccc(C#CCCNc2ncnc3sccc23)cc1 [compound 13] | 80 to 95
Clc1ccccc1C#CCCNc1ncnc2sccc12 [compound 14] | > 95
Clc1ccc(C#CCCNc2ncnc3sccc23)cc1 [compound 16] | 60 to 80
Cc1ccc(C#CCCNc2ncnc3sccc23)cc1 [compound 19] | > 95
FCc1ccccc1C#CCCNc1ncnc2ccccc12 [compound 99] | > 95
N#Cc1ccccc1C#CCCNc1ncnc2ccccc12 [compound 102] | > 95
FC(F)=Cc1ccc(C#CCCNc2ncnc3ccccc23)cc1 [compound 113] | > 95
CN(c1ccc(C#CCCNc2ncnc3ccccc23)cc1)S(C)(=O)=O [compound 124] | 60 to 80
OCc1ccccc1C#CCCNc1ncnc2ccccc12 [compound 130] | 80 to 95
COCc1ccccc1C#CCCNc1ncnc2ccccc12 [compound 133] | > 95
COC(C)c1ccccc1C#CCCNc1ncnc2ccccc12 (stereo not drawn) [compound 137] | > 95
COCc1cc(F)ccc1C#CCCNc1ncnc2ccccc12 [compound 139] | > 95
COCc1ccc(Cl)cc1C#CCCNc1ncnc2ccccc12 [compound 143] | > 95
COCc1ccc(C)cc1C#CCCNc1ncnc2ccccc12 [compound 144] | > 95
CCOCc1ccccc1C#CCCNc1ncnc2ccccc12 [compound 153] | > 95
CC(C)OCc1ccccc1C#CCCNc1ncnc2ccccc12 [compound 154] | > 95
C(#Cc1ccccc1C1OCCO1)CCNc1ncnc2ccccc12 [compound 155] | 60 to 80
Cc1cc(C)c(C#CCCNc2ncnc3ccccc23)c(C)c1 [compound 181] | > 95
FC(F)(F)c1ccc(C#CCCNc2ncnc3ccccc23)c(Cl)c1 [compound 182] | 60 to 80
C(#Cc1ccsc1)CCNc1ncnc2ccccc12 [compound 205] | 80 to 95

SMILES | mortality at 250 ppm [%]
Cc1ccc(C#CCCNc2ncnc3ccccc23)s1 [compound 206] | > 95
Fc1ccccc1Oc1nc(C#CCCNc2ncnc3ccccc23)cs1 [compound 224] | 60 to 80
CC(CC#Cc1ccccc1C(F)(F)F)Nc1ncnc2sccc12 (stereo not drawn) [compound 233] | > 95
CC(CC#Cc1ccc(C(F)(F)F)cc1)Nc1ncnc2sccc12 (stereo not drawn) [compound 235] | > 95
CCc1ccc(C#CCC(C)Nc2ncnc3sccc23)cc1 (stereo not drawn) [compound 240] | > 95
CC(CC#Cc1ccc(C(C)C)cc1)Nc1ncnc2sccc12 (stereo not drawn) [compound 241] | > 95
Cc1cc(F)ccc1C#CCC(C)Nc1ncnc2sccc12 (stereo not drawn) [compound 246] | > 95
Cc1cc(Cl)ccc1C#CCC(C)Nc1ncnc2sccc12 (stereo not drawn) [compound 250] | > 95
CC(CC#Cc1ccc(S(F)(F)(F)(F)F)cc1Cl)Nc1ncnc2sccc12 (stereo not drawn) [compound 253] | 60 to 80
CC(CC#Cc1ccc(C(F)(F)F)cc1Cl)Nc1ncnc2sccc12 (stereo not drawn) [compound 257] | > 95
Cc1ccc(C#CCC(C)Nc2ncnc3sccc23)c(C)c1 (stereo not drawn) [compound 259] | > 95
CC(CC#Cc1c(Cl)cc(C(F)(F)F)cc1Cl)Nc1ncnc2sccc12 (stereo not drawn) [compound 262] | > 95
Cc1cc(C)c(C#CCC(C)Nc2ncnc3sccc23)c(C)c1 (stereo not drawn) [compound 263] | 60 to 80
CCC(CC#Cc1ccccc1)Nc1ncnc2sccc12 (stereo not drawn) [compound 267] | > 95
CCCC(CC#Cc1ccccc1)Nc1ncnc2sccc12 (stereo not drawn) [compound 268] | > 95
CC(CC#Cc1ccc(C(F)(F)F)cc1)Nc1ncnc2ccccc12 (stereo not drawn) [compound 275] | > 95
Cc1ccc(C#CCC(C)Nc2ncnc3ccccc23)cc1 (stereo not drawn) [compound 279] | > 95
CC(CC#Cc1ccc(C(F)(C(F)(F)F)C(F)(F)F)cc1Cl)Nc1ncnc2ccccc12 (stereo not drawn) [compound 281] | > 95
CC(CC#Cc1ccc(S(F)(F)(F)(F)F)cc1Cl)Nc1ncnc2ccccc12 (stereo not drawn) [compound 283] | 80 to 95
CCOC(=O)C(CC#Cc1ccccc1C(F)(F)F)Nc1ncnc2ccccc12 (stereo not drawn) [compound 304] | > 95

SMILES | mortality at 250 ppm [%]
COCc1ccccc1C#CCCNc1ncnc2ccc(F)cc12 [compound 317] | > 95
COCc1ccccc1C#CCCNc1ncnc2cc(F)c(F)cc12 [compound 319] | > 95
COCc1ccccc1C#CCCNc1ncnc2ccc(-c3ccccc3)cc12 [compound 333] | > 95
COCc1ccccc1C#CCCNc1ncnc2ccc(-c3ccc(F)cc3)cc12 [compound 336] | 80 to 95
CC(CC#Cc1ccccc1C(F)(F)F)Nc1ncnc2c(F)cccc12 (stereo not drawn) [compound 343] | > 95
CC(CC#Cc1ccc(Cl)cc1C(F)(F)F)Nc1ncnc2cccc(F)c12 (stereo not drawn) [compound 346] | > 95
CC(CC#Cc1ccc(Cl)cc1C(F)(F)F)Nc1ncnc2c(Cl)cccc12 (stereo not drawn) [compound 349] | > 95
CC(CC#Cc1ccc(Cl)cc1C(F)(F)F)Nc1ncnc2cccc(Cl)c12 (stereo not drawn) [compound 350] | 80 to 95
CC(CC#Cc1ccc(Cl)cc1C(F)(F)F)Nc1ncnc2c(C(F)(F)F)cccc12 (stereo not drawn) [compound 351] | > 95
COCc1ccccc1C#CCCNc1ncnc(C)c1Cl [compound 362] | > 95
CC(F)c1ncnc(NCCC#Cc2ccccc2)c1I (stereo not drawn) [compound 374] | > 95
CC(F)c1ncnc(NCCC#Cc2ccccc2)c1Br (stereo not drawn) [compound 375] | 60 to 80
CC(F)c1ncnc(NCCC#Cc2ccccc2)c1Cl (stereo not drawn) [compound 376] | > 95
CC(F)c1ncnc(NCCC#Cc2ccc(Cl)cc2C(F)(F)F)c1Cl (stereo not drawn) [compound 377] | > 95
COCc1ccccc1C#CCCNc1ncnc2ncccc12 [compound 380] | > 95
CC(CC#Cc1ccccc1)Nc1ncnc(C(C)F)c1I (stereo not drawn) [compound 381] | 60 to 80
CC(CC#Cc1ccc(Cl)cc1C(F)(F)F)Nc1ncnc(C(C)Cl)c1Cl (stereo not drawn) [compound 383] | > 95
Cc1ncnc(NC(C)CC#Cc2ccc(Cl)cc2C(F)(F)F)c1Cl (stereo not drawn) [compound 385] | > 95
Cc1ncnc(NC(C)CC#Cc2ccc(Cl)cc2C(F)(F)F)c1I (stereo not drawn) [compound 386] | > 95

What follows are molecules tested on Tetranychus urticae female adults (assay: whole plant or invertebrate). Settings: 48 h, read-out: Determination (mortality rate).
Protocol: as §1, with “kidney bean” for “cucumber”, “ten” for “five”, “Tetranychus urticae” for “Aphis gossypii”, “cup.” for “cup, and they were then left at rest overnight. Thereafter, the number of new-born larvae was counted.”

SMILES | mortality at 250 ppm [%]
FC(F)(F)c1ccc(C#CCCNc2ncnc3sccc23)cc1 [compound 27] | 60 to 80
N#Cc1ccccc1C#CCCNc1ncnc2ccccc12 [compound 102] | 60 to 80
FC(F)=Cc1ccc(C#CCCNc2ncnc3ccccc23)cc1 [compound 113] | > 95
CN(c1ccc(C#CCCNc2ncnc3ccccc23)cc1)S(C)(=O)=O [compound 124] | > 95
COCc1ccccc1C#CCCNc1ncnc2ccccc12 [compound 133] | > 95
COCc1cc(F)ccc1C#CCCNc1ncnc2ccccc12 [compound 139] | > 95
CCOCc1ccccc1C#CCCNc1ncnc2ccccc12 [compound 153] | > 95
C(#Cc1ccccc1C1OCCO1)CCNc1ncnc2ccccc12 [compound 155] | 60 to 80
Cc1cc(C)c(C#CCCNc2ncnc3ccccc23)c(C)c1 [compound 181] | > 95
FC(F)(F)c1ccc(C#CCCNc2ncnc3ccccc23)c(Cl)c1 [compound 182] | 60 to 80
C(#Cc1ccsc1)CCNc1ncnc2ccccc12 [compound 205] | 60 to 80
Cc1ccc(C#CCCNc2ncnc3ccccc23)s1 [compound 206] | 80 to 95
CC(CC#Cc1ccccc1C(F)(F)F)Nc1ncnc2sccc12 (stereo not drawn) [compound 233] | 80 to 95
CCc1ccc(C#CCC(C)Nc2ncnc3sccc23)cc1 (stereo not drawn) [compound 240] | > 95
CC(CC#Cc1ccc(C(C)C)cc1)Nc1ncnc2sccc12 (stereo not drawn) [compound 241] | 80 to 95
Cc1cc(F)ccc1C#CCC(C)Nc1ncnc2sccc12 (stereo not drawn) [compound 246] | 80 to 95
CC(CC#Cc1ccc(S(F)(F)(F)(F)F)cc1Cl)Nc1ncnc2sccc12 (stereo not drawn) [compound 253] | 80 to 95

SMILES | mortality at 250 ppm [%]
Cc1ccc(C#CCC(C)Nc2ncnc3sccc23)c(C)c1 (stereo not drawn) [compound 259] | > 95
CC(CC#Cc1c(Cl)cc(C(F)(F)F)cc1Cl)Nc1ncnc2sccc12 (stereo not drawn) [compound 262] | > 95
Cc1cc(C)c(C#CCC(C)Nc2ncnc3sccc23)c(C)c1 (stereo not drawn) [compound 263] | 60 to 80
CCC(CC#Cc1ccccc1)Nc1ncnc2sccc12 (stereo not drawn) [compound 267] | 60 to 80
CC(CC#Cc1ccc(C(F)(C(F)(F)F)C(F)(F)F)cc1Cl)Nc1ncnc2ccccc12 (stereo not drawn) [compound 281] | > 95
CC(CC#Cc1ccc(S(F)(F)(F)(F)F)cc1Cl)Nc1ncnc2ccccc12 (stereo not drawn) [compound 283] | > 95
CCOC(=O)C(CC#Cc1ccccc1C(F)(F)F)Nc1ncnc2ccccc12 (stereo not drawn) [compound 304] | > 95
COCc1ccccc1C#CCCNc1ncnc2ccc(-c3ccccc3)cc12 [compound 333] | > 95
CC(CC#Cc1ccc(Cl)cc1C(F)(F)F)Nc1ncnc2cccc(F)c12 (stereo not drawn) [compound 346] | > 95
CC(CC#Cc1ccc(Cl)cc1C(F)(F)F)Nc1ncnc2c(Cl)cccc12 (stereo not drawn) [compound 349] | 80 to 95
CC(CC#Cc1ccc(Cl)cc1C(F)(F)F)Nc1ncnc2cccc(Cl)c12 (stereo not drawn) [compound 350] | > 95
CC(CC#Cc1ccc(Cl)cc1C(F)(F)F)Nc1ncnc2c(C(F)(F)F)cccc12 (stereo not drawn) [compound 351] | > 95
COCc1ccccc1C#CCCNc1ncnc(C)c1Cl [compound 362] | > 95
CC(F)c1ncnc(NCCC#Cc2ccccc2)c1Cl (stereo not drawn) [compound 376] | > 95
CC(CC#Cc1ccc(Cl)cc1C(F)(F)F)Nc1ncnc(C(C)Cl)c1Cl (stereo not drawn) [compound 383] | > 95
Cc1ncnc(NC(C)CC#Cc2ccc(Cl)cc2C(F)(F)F)c1Cl (stereo not drawn) [compound 385] | > 95
Cc1ncnc(NC(C)CC#Cc2ccc(Cl)cc2C(F)(F)F)c1I (stereo not drawn) [compound 386] | > 95

These molecules were tested on Spodptera litura (assay: whole plant or invertebrate). Settings: Brassica rapa, 48 h, read-out: Determination (mortality rate).
Protocol: A Chinese cabbage leaf section having a diameter of 3 cm was immersed in an agent solution prepared by diluting a 10% wettable powder of each compound shown in Table 1 to a concentration of 500 ppm, and it was then subjected to air drying. Thereafter, the Chinese cabbage leaf was placed in a plastic petri dish, and 10 third-instar larvae of Spodptera litura were released therein. Two days after the treatment, the number of deaths was counted, and the mortality rate was then calculated.

SMILES | mortality at 500 ppm [%]
Fc1ccc(C#CCCNc2ncnc3sccc23)cc1 [compound 13] | 60 to 80
Clc1ccccc1C#CCCNc1ncnc2sccc12 [compound 14] | 60 to 80
Clc1ccc(C#CCCNc2ncnc3sccc23)cc1 [compound 16] | 60 to 80
Cc1ccc(C#CCCNc2ncnc3sccc23)cc1 [compound 19] | 60 to 80
FC(F)(F)c1ccc(C#CCCNc2ncnc3sccc23)cc1 [compound 27] | 80 to 95
C(#Cc1ccoc1)CCNc1ncnc2sccc12 [compound 52] | 60 to 80
C(#Cc1ccccn1)CCNc1ncnc2sccc12 [compound 55] | 60 to 80
FCc1ccccc1C#CCCNc1ncnc2ccccc12 [compound 99] | > 95
N#Cc1ccccc1C#CCCNc1ncnc2ccccc12 [compound 102] | > 95
FC(F)=Cc1ccc(C#CCCNc2ncnc3ccccc23)cc1 [compound 113] | 60 to 80
COCOc1ccc(C#CCCNc2ncnc3ccccc23)cc1 [compound 121] | 60 to 80
OCc1ccccc1C#CCCNc1ncnc2ccccc12 [compound 130] | 60 to 80
COCc1ccccc1C#CCCNc1ncnc2ccccc12 [compound 133] | > 95
COC(C)c1ccccc1C#CCCNc1ncnc2ccccc12 (stereo not drawn) [compound 137] | 60 to 80
COCc1cc(F)ccc1C#CCCNc1ncnc2ccccc12 [compound 139] | > 95
COCc1ccc(Cl)cc1C#CCCNc1ncnc2ccccc12 [compound 143] | > 95
COCc1ccc(C)cc1C#CCCNc1ncnc2ccccc12 [compound 144] | > 95
CC(C)OCc1ccccc1C#CCCNc1ncnc2ccccc12 [compound 154] | 60 to 80

SMILES | mortality at 500 ppm [%]
FC(F)(F)c1ccc(C#CCCNc2ncnc3ccccc23)cc1Cl [compound 177] | 60 to 80
Fc1ccccc1Oc1nc(C#CCCNc2ncnc3ccccc23)cs1 [compound 224] | 60 to 80
CC(CC#Cc1ccc(C(F)(F)F)cc1)Nc1ncnc2sccc12 (stereo not drawn) [compound 235] | 60 to 80
Cc1cc(Cl)ccc1C#CCC(C)Nc1ncnc2sccc12 (stereo not drawn) [compound 250] | > 95
CC(CC#Cc1ccc(C(F)(F)F)cc1Cl)Nc1ncnc2sccc12 (stereo not drawn) [compound 257] | > 95
CCCC(CC#Cc1ccccc1)Nc1ncnc2sccc12 (stereo not drawn) [compound 268] | 60 to 80
CC(CC#Cc1ccc(C(F)(F)F)cc1)Nc1ncnc2ccccc12 (stereo not drawn) [compound 275] | > 95
Cc1ccc(C#CCC(C)Nc2ncnc3ccccc23)cc1 (stereo not drawn) [compound 279] | 80 to 95
COCc1ccccc1C#CCCNc1ncnc2ccc(F)cc12 [compound 317] | 60 to 80
COCc1ccccc1C#CCCNc1ncnc2cc(F)c(F)cc12 [compound 319] | 60 to 80
COCc1ccccc1C#CCCNc1ncnc2ccc(SC)cc12 [compound 332] | 60 to 80
COCc1ccccc1C#CCCNc1ncnc2ccc(-c3ccc(F)cc3)cc12 [compound 336] | 60 to 80
CC(CC#Cc1ccccc1C(F)(F)F)Nc1ncnc2c(F)cccc12 (stereo not drawn) [compound 343] | > 95
CC(F)c1ncnc(NCCC#Cc2ccccc2)c1I (stereo not drawn) [compound 374] | > 95
CC(F)c1ncnc(NCCC#Cc2ccccc2)c1Br (stereo not drawn) [compound 375] | 80 to 95
CC(F)c1ncnc(NCCC#Cc2ccc(Cl)cc2C(F)(F)F)c1Cl (stereo not drawn) [compound 377] | 80 to 95
COCc1ccccc1C#CCCNc1ncnc2ncccc12 [compound 380] | 60 to 80
CC(CC#Cc1ccccc1)Nc1ncnc(C(C)F)c1I (stereo not drawn) [compound 381] | 60 to 80
